Laboratory results published in the supplement of paper PMC7125110.
This sample is rich in variants without activity.

B1: glmS ribozyme (parent)
chain: AUAAAAGCGCCAGAACUACAGAAAUGUAGUUGACGAGGAGGAGGUUUAUCGAAUUUUCGGCGGAUGCCUCCAAA

Assays:
Details in all cases: with glucosamine-6-phosphate
[1] = variants of: B1; assay: self-cleavage kobs at 40 uM GlcN6P; higher = faster cleavage; RNA array
Procedure, shortened: (§1)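 On sequenced MiSeq chips, barcoded ribozyme variants were made in situ by E. coli RNA polymerase and followed at 37 °C through a hybridised Cy3 probe. Glucosamine-6-phosphate was flowed in at 40 μM to 10 mM in HEPES/KCl/Mg(OAc)2 buffer. Exponential fits to normalised per-tile medians gave kobs, and weighted Michaelis–Menten fits gave kcat and KM.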

[2] = variants of: B1; assay: self-cleavage kobs at 2500 uM GlcN6P; higher = faster cleavage; RNA array
Procedure, shortened: as §1

[3] = variants of: B1; assay: self-cleavage kobs at 10000 uM GlcN6P; higher = faster cleavage; RNA array
Procedure, shortened: as §1

[4] = variants of: B1; assay: self-cleavage kobs at 160 uM GlcN6P; higher = faster cleavage; RNA array
Procedure, shortened: as §1

[5] = variants of: B1; assay: self-cleavage kobs at 640 uM GlcN6P; higher = faster cleavage; RNA array
Procedure, shortened: as §1

Variant | self-cleavage kobs at 40 uM GlcN6P [1] [s⁻¹] | self-cleavage kobs at 2500 uM GlcN6P [2] [s⁻¹] | self-cleavage kobs at 10000 uM GlcN6P [3] [s⁻¹] | self-cleavage kobs at 160 uM GlcN6P [4] [s⁻¹] | self-cleavage kobs at 640 uM GlcN6P [5] [s⁻¹]
AUAAAAGCGCCAGAACUACAGAAAUGUAGUUGACGAGGAGGAGGUUUAUCGUAGUGCCGGCGGAUGCCUCCAAA | < 1e-05 | < 1e-05 | < 1e-05 | – | –
AUAAAAGCGCCAGAACUACAGAAAUGUAGUUGACGAGGAGGAGGUUUAUCGGAUAUUCGGCGGAUGCUUCGAAA | < 1e-05 | – | – | – | –
AUAAAAGCGCCAGAACUACAGAAAUGUAGUUGACGAGGAGGAGGUUUAUCGCAUUUUCGACGGAUGCUUCCAAA | < 1e-05 | – | < 1e-05 | – | –
AUAAAAGCGCCAGAACUACAGAAAUGUAGUUGACGAGGAGGAGGUUUAUCGCAUUUUCGGCGGAUGUCUCCAAA | < 1e-05 | – | – | – | –
AUAAAAGCGCCAGAACUACAGAAAUGUAGUUGACGAGGAGGAGGUUUAUCGGAUUUUUGGCGGAUGCCUCCAAA | < 1e-05 | – | – | < 1e-05 | –
AUAAAAGCGCCAGAACUACAGAAAUGUAGUUGACGAGGAGGAGGUUUAUCGUAUUUUCCGCGCAUGCCUCCAAA | < 1e-05 | – | < 1e-05 | – | –
AUAAAAGCGCCAGAACUACAGAAAUGUAGUUGACGAGGAGGAGGUUUAUCGUAUUUUCAGGGGAUGCCUCCAAA | < 1e-05 | < 1e-05 | – | – | –
AUAAAAGCGCCAGAACUACAGAAAUGUAGUUGACGAGGAGGAGGUUUAUCGUAUUUUCUGCGGAUGCCUGCAAA | < 1e-05 | < 1e-05 | < 1e-05 | – | –
AUAAAAGCGCCAGAACUACAGAAAUGUAGUUGACGAGGAGGAGGUUUAUCGUGUUUUCGGUGGAUGCCUCCAAA | < 1e-05 | – | – | – | –
AUAAAAGCGCCAGAACUACAGAAAUGUAGUUGACGAGGAGGAGGUUUAUCGGAUUUUCUGCGGAUGCCUCCAAA | < 1e-05 | – | – | – | < 1e-05
AUAAAAGCGCCAGAACUACAGAAAUGUAGUUGACGAGGAGGAGGUUUAUCGUAUUUUCGGCUGAUGCCUCCAAA | < 1e-05 | < 1e-05 | < 1e-05 | – | < 1e-05
AUAAAAGCGCCAGAACUACAGAAAUGUAGUUGACGAGGAGGAGGUUUAUCGCAUUUACGGCGCAUGCCUCCAAA | < 1e-05 | – | < 1e-05 | < 1e-05 | –
AUAAAAGCGCCAGAACUACAGAAAUGUAGUUGACGAGGAGGAGGUUUAUCGUCUUUUCGGCGGAUGCCUCCAAA | < 1e-05 | – | < 1e-05 | < 1e-05 | < 1e-05
AUAAAAGCGCCAGAACUACAGAAAUGUAGUUGACGAGGAGGAGGUUUAUCGUAUUUUCGGUGGAUGCCUCCAAA | < 1e-05 | – | < 1e-05 | < 1e-05 | < 1e-05
AUAAAAGCGCCAGAACUACAGAAAUGUAGUUGACGAGGAGGAGGUUUAUCGUAUUUUCGGGGGAUGCCUCCAAA | < 1e-05 | – | < 1e-05 | < 1e-05 | –
